PMC4336329 (PLoS ONE, 2015)
About 2,200 (0.71%) of roughly 310,000 compounds showed an effect of 50% or more. Effects have a minus sign here. The list shows a part of the results.

target: human ether-à-go-go-related gene (hERG) potassium channel (human, UniProt Q12809); assay: primary screen, population patch clamp on CHO cells stably expressing hERG
Sequence (Q12809 whole entry, looked up): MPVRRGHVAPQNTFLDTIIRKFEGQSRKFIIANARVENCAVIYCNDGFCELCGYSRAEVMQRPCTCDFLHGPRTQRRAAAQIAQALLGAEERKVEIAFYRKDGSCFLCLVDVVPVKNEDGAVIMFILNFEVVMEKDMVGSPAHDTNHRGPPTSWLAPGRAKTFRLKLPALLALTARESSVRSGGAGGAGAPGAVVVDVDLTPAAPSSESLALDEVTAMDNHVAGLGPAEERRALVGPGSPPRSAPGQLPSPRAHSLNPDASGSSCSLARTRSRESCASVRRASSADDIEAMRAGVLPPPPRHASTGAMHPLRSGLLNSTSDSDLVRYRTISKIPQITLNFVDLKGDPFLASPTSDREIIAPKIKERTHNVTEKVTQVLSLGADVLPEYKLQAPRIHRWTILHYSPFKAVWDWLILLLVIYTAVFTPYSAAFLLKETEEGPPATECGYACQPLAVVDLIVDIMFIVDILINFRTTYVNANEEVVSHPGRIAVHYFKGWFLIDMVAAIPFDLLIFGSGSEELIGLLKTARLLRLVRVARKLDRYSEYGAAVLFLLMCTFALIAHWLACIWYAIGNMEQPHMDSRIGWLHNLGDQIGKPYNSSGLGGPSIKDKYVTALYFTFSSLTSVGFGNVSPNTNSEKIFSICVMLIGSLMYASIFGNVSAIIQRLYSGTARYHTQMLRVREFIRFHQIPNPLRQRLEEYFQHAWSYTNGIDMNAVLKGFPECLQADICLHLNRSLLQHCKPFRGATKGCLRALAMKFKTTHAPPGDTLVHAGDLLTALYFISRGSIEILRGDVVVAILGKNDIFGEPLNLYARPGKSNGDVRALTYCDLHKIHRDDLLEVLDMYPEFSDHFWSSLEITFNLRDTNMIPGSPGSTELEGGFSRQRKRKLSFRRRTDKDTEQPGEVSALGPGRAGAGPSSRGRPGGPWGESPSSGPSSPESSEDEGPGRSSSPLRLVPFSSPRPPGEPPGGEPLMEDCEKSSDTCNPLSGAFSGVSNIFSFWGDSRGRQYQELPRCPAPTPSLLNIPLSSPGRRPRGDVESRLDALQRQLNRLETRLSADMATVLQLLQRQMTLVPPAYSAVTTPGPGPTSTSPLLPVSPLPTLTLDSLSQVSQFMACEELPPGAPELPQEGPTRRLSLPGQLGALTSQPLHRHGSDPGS

Structure (SMILES)	hERG current change (%, negative = inhibition) at 1uM
CN(C)c1ccc(/C=N\NC(=O)CC#N)cc1	13.1%
NC(=O)NC(c1ccccc1)c1ccccc1	8.55%
Cn1c(=O)[nH]c(=O)c2c1nc(NCCc1ccccc1)n2CC(O)COc1ccccc1 (stereo not drawn)	11.2%
Cn1c(Cn2c(=O)sc3ccccc32)nnc1SCC(=O)NCc1ccco1	-3.88%
Br.CCc1nnc2n1N=C(c1ccccc1)CS2	12.7%
NC(=O)C1(NC(=O)[C@@H]2CC3(CC(c4cccc(NC(=O)c5cc([N+](=O)[O-])cc([N+](=O)[O-])c5)c4)=NO3)CN2C(=O)c2ccccc2)CC1 (stereo partly drawn)	10.1%
CC(C)c1ccc(N2C(=O)CC(Sc3ncccn3)C2=O)cc1 (stereo not drawn)	6.92%
CC(=O)N1CCN(c2ccc(NC(=O)COc3ccc(Cl)cc3Cl)cc2)CC1	16.9%
CCN(C(=O)c1coc(=O)c(Br)c1)c1ccc2c(c1)OCO2	13.6%
O=[N+]([O-])c1cccc(CP(=O)(c2ccccc2)c2ccccc2)c1	10.8%
C/C(=N/NC(=O)CNC(=O)c1ccncc1)c1ccco1	-0.0025%
Cc1nn(C)c(C)c1CN(C)C(=O)C1(C)CC1(Br)Br (stereo not drawn)	5.58%
CCOC(=O)C1CCN(C(=O)c2ccc(CNS(=O)(=O)c3ccc(C)cc3)cc2)CC1	9.81%
O=c1c2ccccc2nc(SCc2cccc(F)c2)n1-c1cccc(S(=O)(=O)N2CCCC2)c1	14.1%
CC(C)(C)c1ccc(C(=O)Nc2nnc(SCC(=O)NCC3CCCO3)s2)cc1 (stereo not drawn)	8.34%
O=C(NNC(=S)NCc1ccco1)c1ccc(S(=O)(=O)N2CCOCC2)cc1	12.3%
O=C(/C=C/c1ccccc1)Nc1ccc(Br)cn1	10.4%
COc1ccc(NC2CS(=O)(=O)CC2NCc2ccco2)cc1 (stereo not drawn)	8.7%
Cc1cc([N+](=O)[O-])ccc1NC1CCCC1	5.77%
CC(C)(C)NC(=O)CN(C(=O)C1(C)CC(=O)N=C2C=CC=CN21)C1CCCC1 (stereo not drawn)	0.806%
COc1ccc(S(=O)(=O)Cc2ccc(C(=O)O)o2)cc1	18.7%
Cc1ccc(N(Cc2cc(=O)[nH]c3ccccc23)C(=O)CCl)cc1	11.3%
COc1ccc([C@H]2CC(=O)C=C(c3cc(Cl)cc(Cl)c3)C2)cc1	15.1%

Structure (SMILES)	hERG current change (%, negative = inhibition) at 1uM
Cn1c(=O)oc2cc(S(=O)(=O)NCCC(=O)N3CCN(c4ccccc4F)CC3)ccc21	8.47%
O=C(NCCCCc1ccccc1)c1ccccc1F	12.5%
CCNC(=S)N/N=C/c1ccc(OCC(=O)Nc2ccc(OC)cc2)c(OC)c1	13.7%
Cc1ccccc1C=O	7.1%
COCC(=O)Nc1ccc(-c2cn3cccnc3n2)cc1	6.22%
O=[N+]([O-])c1ccc(N2CCN(S(=O)(=O)Cc3ccccc3)CC2)cc1N1CCOCC1	0.81%
NC(=O)CC(NC(=O)Cc1ccc(Cl)cc1)c1ccc(NC2CCCC2)c([N+](=O)[O-])c1 (stereo not drawn)	9.22%
C#CC(CC)(CC)NC(=O)Nc1ccc(OCC)cc1	-2.15%
COC(=O)CCN(C(=O)c1ccc(C)c([N+](=O)[O-])c1)c1ccccn1	10.2%
CC(=O)Nc1ccc(S(=O)(=O)N2CCC(C(=O)NCc3ccco3)CC2)cc1	8.19%
Cc1ccc(N(CC(=O)NCc2ccc3c(c2)OCO3)C(=O)CCC(=O)Nc2ccccn2)cc1	8.99%
Cc1ccc2c(c1)N(CC(=O)c1cccc(Cl)c1)C(=O)C(C)O2 (stereo not drawn)	-2.95%
CC(=O)Nc1cc(S(=O)(=O)Nc2ccccc2C)c(C)cc1C	1.88%
CSc1ccc(/C=N/n2c(C3CCCCC3)n[nH]c2=S)cc1	18%
O=C(NNC(=O)c1cccc2ccccc12)c1ccco1	14.7%
Cc1cccc(OCC(=O)NCC2CCCO2)c1C (stereo not drawn)	-5.97%
CCSc1nc(-c2ccco2)ccc1C#N	1.41%
CCCCC1=CC2=CC(=O)C(C)(OC(=O)CC)C(=O)C2=CN1c1ccc(OC)cc1 (stereo not drawn)	4.57%
COCc1cc(=O)[nH]c2c1c(-c1ccccc1)nn2C	13.8%
Cc1cc(=O)n2nc(N3CCCC3C(=O)Nc3ccccc3C)sc2n1 (stereo not drawn)	13.4%
c1cnc2ccc(C(c3nnnn3C3CCCCC3)N3CCN4CCCC4C3)cc2c1 (stereo not drawn)	-96.9%
Cc1ccc(OCC(=O)Nc2c(C)ccc3nsnc23)cc1	3.02%
